Reference: PubChem BioAssay AID504706 (National Center for Advancing Translational Sciences (NCATS), 2011)
The whole screen tested about 320,000 compounds, of which about 200 (0.062%) were called active. Inconclusive means that the source gave no clear call. Such entries were picked first, then a sample of the others. Calls follow the shape of the dose curve; as a rule, active = well fitted activation curve with a large enough effect; inconclusive = small, poorly fitted or top-dose-only effect; inactive = no such curve, though single readings can be large or run the other way. No potency is given beside an inconclusive call; the fits are too rough.

Assay: qHTS assay for re-activators of p53 using a Luc reporter; also: nearly all actives have a fitted effect of over 45% in size; as to activity change, positive = activation: % of control where 0% means no effect
Conditions: H1299 p53-A138V BP100-luciferase reporter, luminescence, 24 h; series mostly up to 92.2 µM; activity change, positive = activation: at the top concentration
Method in brief: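 p53-null H1299 cells stably carrying temperature-sensitive p53-A138V and a BP100-luciferase reporter were pinned with compounds (4-point, 1:5 series) and held 24 hrs at 37 deg C. Luminescence was read 10 min after detection reagent.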
Potency is read from the fitted curve at half-maximal effect; tags tell the direction and shape of the fitted curve.

Compound	activity change, positive = activation	Potency
Cc1nn(Cc2cccc(C(=O)N3N=C(C(F)F)CC3(O)C(F)F)c2)c(C)c1[N+](=O)[O-] (stereo not given)	inactive: -6.29%	–
Cc1cccc(OCCn2c(=O)n(C)c3ccccc32)c1	–	inconclusive [activator, partial curve, poor fit]
CCC(C)NC(=O)c1cn(CC)c2cc(N3CCN(C(=O)c4ccco4)CC3)c(F)cc2c1=O (stereo not given)	inactive: -5.73%	–
Fc1cc(F)c2nc(N3CCOCC3)sc2c1	–	inconclusive [activator, full curve, poor fit]
CCC1(C)Cc2ccccc2-c2nc3n(c(=O)c21)CCS3 (stereo not given)	inactive: -6.36%	–
O=C(c1ccccc1)c1cnc(-c2ccc(Cl)cc2)s1	–	inconclusive [activator, single point]
Cc1cc2oc(=O)cc(CN(C)Cc3ccccc3F)c2cc1Cl	–	inconclusive [activator, full curve, poor fit]
CC(=O)Nc1ccc(C(=O)CSc2nnnn2C(C)C)cc1	–	inconclusive [activator, partial curve, poor fit]
O=C(COC(=O)CCNS(=O)(=O)c1cccs1)Nc1cc(C(F)(F)F)ccc1Cl	–	inconclusive [activator, single point]
Cc1ccc(SCCCCN2C(=O)NC(C)(C)C2=O)cc1	–	inconclusive [activator, single point]
Nc1nc2n(n1)C(c1cccs1)CC(c1ccccc1)N2 (stereo not given)	inactive: 2.59%	–
CCOc1ccc(S(=O)(=O)N2CCN(Cc3ccccc3)CC2)cc1	–	inconclusive [activator, single point]
Cc1ccc(OCC(=O)N2CCC(C)CC2)c([N+](=O)[O-])n1	–	inconclusive [activator, single point]
Cc1nn(Cc2ccc(Cl)cc2)c(C)c1NC(=O)C(c1ccccc1)c1ccccc1	inactive: -2.33%	–
Cc1ccc(NC(=O)Cn2cc(C(=O)C3CC3)c3ccccc32)cc1	inactive: -3.77%	–
CCN(CC)CCN1C(=O)C(O)=C(C(=O)c2cccs2)C1c1ccc(C)o1 (stereo not given)	–	inconclusive [activator, partial curve, poor fit]
CCc1ccc(-c2csc(NC(=O)C3=COCCO3)n2)cc1	–	inconclusive [activator, full curve, poor fit]
O=C(CCN1C(=O)C2C3C=CC(C3)C2C1=O)N1CCN(c2cccc(Cl)c2)CC1 (stereo not given)	inactive: 9.62%	–
CC(=O)Nc1nc2c(C)cc(NC(=O)C3CCCCC3)cc2s1	inactive: 15.4%	–
CCOc1cc(C2NN=C(c3ccc(C)cc3)S2)ccc1O (stereo not given)	–	inconclusive [activator, partial curve, poor fit]
CCOc1ccc(C(=O)N/N=C/c2ccccc2[N+](=O)[O-])cc1	–	inconclusive [activator, partial curve, poor fit]
COc1ccc(NC(=S)c2ccccc2)cc1	–	inconclusive [activator, partial curve, poor fit]
O=c1[nH]c2ccsc2c(=O)n1-c1ccc(F)c(Cl)c1	inactive: 5.29%	–

Compound	activity change, positive = activation	Potency
Nc1c(-c2ccccc2)n[nH]c1-c1ccccc1	–	inconclusive [activator, partial curve, poor fit]
Fc1ccccc1NC(=S)N/N=C/c1ccccc1Br	–	inconclusive [activator, partial curve, poor fit]
O=C(O)c1ccc(Nc2nc(-c3cccnc3)cs2)cc1O	–	inconclusive [activator, single point]
O=C(NC1CCCC1)c1cc(-c2cccc(Cl)c2)on1	–	inconclusive [activator, partial curve, poor fit]
COc1ccc(NC(=O)c2cnc3sccn3c2=O)cc1	–	inconclusive [activator, partial curve, poor fit]
COc1cc(/C=N/NC(=O)c2cncc(Br)c2)cc([N+](=O)[O-])c1O	inactive: 19.9%	–
CC(C)/C=N/NC(=O)c1cccc(N2CCCC2=O)c1	–	inconclusive [activator, full curve, poor fit]
O=c1[nH]n(CC2COC3(CCCCC3)O2)c(=O)c2ccccc12 (stereo not given)	–	inconclusive [activator, partial curve, poor fit]
Cn1nc(C(=O)Nc2nc3ccccc3[nH]2)c2ccccc2c1=O	–	inconclusive [activator, single point]
COc1ccc(CC(=O)Nc2c(C(=O)N3CCN(c4ncccn4)CC3)oc3ccccc23)cc1	inactive: -3.76%	–
CCN(CC)CCN1C(=O)C(=O)/C(=C(/O)c2ccc(OC)cc2)C1c1ccco1 (stereo not given)	–	inconclusive [activator, single point]
CCN(CC)C(=O)c1ccc2c(c1[N+](=O)[O-])C(=O)c1ccccc1C2=O	–	inconclusive [activator, full curve, poor fit]
N/C(=N\OC(=O)N1CCOCC1)c1ccc(Cl)cc1	–	inconclusive [activator, partial curve, poor fit]
O=C(Nc1ccn(-c2ccccc2)n1)c1ccccc1Br	–	inconclusive [activator, partial curve, poor fit]
Cc1cccc(OCC(=O)N2CCC(c3ccccc3)C2)c1 (stereo not given)	–	inconclusive [activator, full curve, poor fit]
Cn1cccc1/C=N/N1CCN(Cc2cccc3ccccc23)CC1	inactive: -2.28%	–
c1ccc(-c2nn3c(C4CCCCC4)nnc3s2)nc1	inactive: -3.49%	–
CC1=C(C(=O)N(C)C)C(c2cccc(Cl)c2)NC(=O)N1 (stereo not given)	inactive: -0.719%	–
Cc1cc(Oc2ccc(C#N)cc2)nc(NCc2ccccc2)n1	inactive: -4.53%	–
COc1cccc(NC(=O)c2cccnc2)c1	–	inconclusive [activator, partial curve, poor fit]
O=C(NCCc1c[nH]c2ccccc12)C(=O)Nc1ccccc1	–	inconclusive [activator, single point]
COC(=O)c1sccc1NC(=S)Nc1ccc(OC)cc1	inactive: 1.7%	–
